{
  "source": "paper PMC9911399",
  "about": "“Two distinct binding modes provide the RNA-binding protein RbFox with extraordinary sequence specificity”",
  "binders": {"B1": {"name": "AAAUUGA (DNA:RNA)", "RNA": "GGGAGACCGGAAUUCAGAUUGUCCAAAUUGAUUAAAUCCCGUCGUAGCCACCA", "DNA 1": "CAATCTGAATTCCGGTCTCCC", "DNA 2": "TGGTGGCTACGACGGGATT"}, "B2": {"name": "CAUAAAG (DNA:RNA)", "RNA": "B1 RNA with A25C, A27U, U28A, U29A, G30A, A31G", "DNA 1": "CAATCTGAATTCCGGTCTCCC", "DNA 2": "TGGTGGCTACGACGGGATT"}, "B3": {"name": "CGGCUCG (DNA:RNA)", "RNA": "B1 RNA with A25C, A26G, A27G, U28C, G30C, A31G", "DNA 1": "CAATCTGAATTCCGGTCTCCC", "DNA 2": "TGGTGGCTACGACGGGATT"}, "B4": {"name": "UGUGCCG (DNA:RNA)", "RNA": "GGGAGACCGGAAUUCAGAUUGUCCUGUGCCGUUAAAUCCCGUCGUAGCCACCA", "DNA 1": "CAATCTGAATTCCGGTCTCCC", "DNA 2": "TGGTGGCTACGACGGGATT"}, "B5": {"name": "GAGCCGG (DNA:RNA)", "RNA": "B1 RNA with A25G, A27G, U28C, U29C, A31G", "DNA 1": "CAATCTGAATTCCGGTCTCCC", "DNA 2": "TGGTGGCTACGACGGGATT"}, "B6": {"name": "GCCGUGA (DNA:RNA)", "RNA": "B1 RNA with A25G, A26C, A27C, U28G", "DNA 1": "CAATCTGAATTCCGGTCTCCC", "DNA 2": "TGGTGGCTACGACGGGATT"}, "B7": {"name": "AUCACCG (DNA:RNA)", "RNA": "B4 RNA with U25A, G26U, U27C, G28A", "DNA 1": "CAATCTGAATTCCGGTCTCCC", "DNA 2": "TGGTGGCTACGACGGGATT"}, "B8": {"name": "GCACGGA (DNA:RNA)", "RNA": "B1 RNA with A25G, A26C, U28C, U29G", "DNA 1": "CAATCTGAATTCCGGTCTCCC", "DNA 2": "TGGTGGCTACGACGGGATT"}, "B9": {"name": "GAGCACU (DNA:RNA)", "RNA": "B1 RNA with A25G, A27G, U28C, U29A, G30C, A31U", "DNA 1": "CAATCTGAATTCCGGTCTCCC", "DNA 2": "TGGTGGCTACGACGGGATT"}, "B10": {"name": "CAGGCAG (DNA:RNA)", "RNA": "B4 RNA with U25C, G26A, U27G, C30A", "DNA 1": "CAATCTGAATTCCGGTCTCCC", "DNA 2": "TGGTGGCTACGACGGGATT"}, "B11": {"name": "CCUUUUG (DNA:RNA)", "RNA": "B1 RNA with A25C, A26C, A27U, G30U, A31G", "DNA 1": "CAATCTGAATTCCGGTCTCCC", "DNA 2": "TGGTGGCTACGACGGGATT"}, "B12": {"name": "GGACACA (DNA:RNA)", "RNA": "B1 RNA with A25G, A26G, U28C, U29A, G30C", "DNA 1": "CAATCTGAATTCCGGTCTCCC", "DNA 2": "TGGTGGCTACGACGGGATT"}, "B13": {"name": "UCCAGUC (DNA:RNA)", "RNA": "B4 RNA with G26C, U27C, G28A, C29G, C30U, G31C", "DNA 1": "CAATCTGAATTCCGGTCTCCC", "DNA 2": "TGGTGGCTACGACGGGATT"}, "B14": {"name": "UCACUGG (DNA:RNA)", "RNA": "B1 RNA with A25U, A26C, U28C, A31G", "DNA 1": "CAATCTGAATTCCGGTCTCCC", "DNA 2": "TGGTGGCTACGACGGGATT"}, "B15": {"name": "AAAAUGA (DNA:RNA)", "RNA": "B1 RNA with U28A", "DNA 1": "CAATCTGAATTCCGGTCTCCC", "DNA 2": "TGGTGGCTACGACGGGATT"}, "B16": {"name": "UGCAUAG (DNA:RNA)", "RNA": "B4 RNA with U27C, G28A, C29U, C30A", "DNA 1": "CAATCTGAATTCCGGTCTCCC", "DNA 2": "TGGTGGCTACGACGGGATT"}, "B17": {"name": "AAUAUAC (DNA:RNA)", "RNA": "B1 RNA with A27U, U28A, G30A, A31C", "DNA 1": "CAATCTGAATTCCGGTCTCCC", "DNA 2": "TGGTGGCTACGACGGGATT"}, "B18": {"name": "UUGGGAG (DNA:RNA)", "RNA": "B4 RNA with G26U, U27G, C29G, C30A", "DNA 1": "CAATCTGAATTCCGGTCTCCC", "DNA 2": "TGGTGGCTACGACGGGATT"}, "B19": {"name": "GCUUGAA (DNA:RNA)", "RNA": "B1 RNA with A25G, A26C, A27U, U29G, G30A", "DNA 1": "CAATCTGAATTCCGGTCTCCC", "DNA 2": "TGGTGGCTACGACGGGATT"}, "B20": {"name": "ACAGGCG (DNA:RNA)", "RNA": "B4 RNA with U25A, G26C, U27A, C29G", "DNA 1": "CAATCTGAATTCCGGTCTCCC", "DNA 2": "TGGTGGCTACGACGGGATT"}, "B21": {"name": "GCACGUG (DNA:RNA)", "RNA": "B1 RNA with A25G, A26C, U28C, U29G, G30U, A31G", "DNA 1": "CAATCTGAATTCCGGTCTCCC", "DNA 2": "TGGTGGCTACGACGGGATT"}, "B22": {"name": "CCCCUAU (DNA:RNA)", "RNA": "B1 RNA with A25C, A26C, A27C, U28C, G30A, A31U", "DNA 1": "CAATCTGAATTCCGGTCTCCC", "DNA 2": "TGGTGGCTACGACGGGATT"}, "B23": {"name": "GACCUUA (DNA:RNA)", "RNA": "B1 RNA with A25G, A27C, U28C, G30U", "DNA 1": "CAATCTGAATTCCGGTCTCCC", "DNA 2": "TGGTGGCTACGACGGGATT"}, "B24": {"name": "GGACGUC (DNA:RNA)", "RNA": "B1 RNA with A25G, A26G, U28C, U29G, G30U, A31C", "DNA 1": "CAATCTGAATTCCGGTCTCCC", "DNA 2": "TGGTGGCTACGACGGGATT"}, "B25": {"name": "GCGCUUC (DNA:RNA)", "RNA": "B1 RNA with A25G, A26C, A27G, U28C, G30U, A31C", "DNA 1": "CAATCTGAATTCCGGTCTCCC", "DNA 2": "TGGTGGCTACGACGGGATT"}, "B26": {"name": "UCCACCU (DNA:RNA)", "RNA": "B4 RNA with G26C, U27C, G28A, G31U", "DNA 1": "CAATCTGAATTCCGGTCTCCC", "DNA 2": "TGGTGGCTACGACGGGATT"}, "B27": {"name": "ACCGUUA (DNA:RNA)", "RNA": "B1 RNA with A26C, A27C, U28G, G30U", "DNA 1": "CAATCTGAATTCCGGTCTCCC", "DNA 2": "TGGTGGCTACGACGGGATT"}, "B28": {"name": "UGGGUGC (DNA:RNA)", "RNA": "B4 RNA with U27G, C29U, C30G, G31C", "DNA 1": "CAATCTGAATTCCGGTCTCCC", "DNA 2": "TGGTGGCTACGACGGGATT"}, "B29": {"name": "ACCACAC (DNA:RNA)", "RNA": "B1 RNA with A26C, A27C, U28A, U29C, G30A, A31C", "DNA 1": "CAATCTGAATTCCGGTCTCCC", "DNA 2": "TGGTGGCTACGACGGGATT"}, "B30": {"name": "GCCCAUU (DNA:RNA)", "RNA": "GGGAGACCGGAAUUCAGAUUGUCCGCCCAUUUUAAAUCCCGUCGUAGCCACCA", "DNA 1": "CAATCTGAATTCCGGTCTCCC", "DNA 2": "TGGTGGCTACGACGGGATT"}, "B31": {"name": "ACGACAU (DNA:RNA)", "RNA": "B30 RNA with G25A, C27G, C28A, A29C, U30A", "DNA 1": "CAATCTGAATTCCGGTCTCCC", "DNA 2": "TGGTGGCTACGACGGGATT"}},
  "note": "Residue numbers refer to the chain shown, from its start. Some of the results follow.",
  "data": [
    {"biological_target": "T1, RBFOX1 RRM (Homo sapiens, UniProt Q9NWB1 109-208)", "T1 sequence": "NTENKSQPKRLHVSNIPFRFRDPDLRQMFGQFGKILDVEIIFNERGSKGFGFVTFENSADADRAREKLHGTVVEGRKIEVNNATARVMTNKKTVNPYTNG", "assay": "EMSA; HiTS-Eq, 1 nM pool, 10 min; buffer printed only for the single-RNA assays: 10 mM Tris pH 7.5, 150 mM NaCl, 3.4 mM EDTA, 0.001% NP-40, 30 C", "details": "tags: His6 N-terminal (pET28a); label: 5' 32P", "outline": "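A pool of RNA with 7 randomized nucleotides, 5′-radiolabelled and with DNA-annealed flanks, was equilibrated at 1 nM for 10 min in 50 µL with purified RbFox RRM, wild type or mutant, across increasing protein concentrations. Free RNA was separated by 8% native PAGE, excised, reverse-transcribed, barcoded by PCR and sequenced. Relative association constants were obtained from read-count changes of each RNA species versus the control reaction and normalised to the cognate motif.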", "values": [
      {"binder": "B1", "binding signal": "0.00544 KA relative to UGCAUGU"},
      {"binder": "B2", "binding signal": "0.00409 KA relative to UGCAUGU"},
      {"binder": "B3", "binding signal": "0.0112 KA relative to UGCAUGU"},
      {"binder": "B4", "binding signal": "0.0199 KA relative to UGCAUGU"},
      {"binder": "B5", "binding signal": "0.00449 KA relative to UGCAUGU"},
      {"binder": "B6", "binding signal": "0.0146 KA relative to UGCAUGU"},
      {"binder": "B7", "binding signal": "0.000671 KA relative to UGCAUGU"},
      {"binder": "B8", "binding signal": "0.0162 KA relative to UGCAUGU"},
      {"binder": "B9", "binding signal": "0.0122 KA relative to UGCAUGU"},
      {"binder": "B10", "binding signal": "0.0139 KA relative to UGCAUGU"},
      {"binder": "B11", "binding signal": "0.0132 KA relative to UGCAUGU"},
      {"binder": "B12", "binding signal": "0.0131 KA relative to UGCAUGU"},
      {"binder": "B13", "binding signal": "0.00851 KA relative to UGCAUGU"},
      {"binder": "B14", "binding signal": "0.0143 KA relative to UGCAUGU"},
      {"binder": "B15", "binding signal": "0.00113 KA relative to UGCAUGU"},
      {"binder": "B16", "binding signal": "0.021 KA relative to UGCAUGU"},
      {"binder": "B17", "binding signal": "0.00131 KA relative to UGCAUGU"},
      {"binder": "B18", "binding signal": "0.0104 KA relative to UGCAUGU"},
      {"binder": "B19", "binding signal": "0.0288 KA relative to UGCAUGU"},
      {"binder": "B20", "binding signal": "0.00856 KA relative to UGCAUGU"},
      {"binder": "B21", "binding signal": "0.0821 KA relative to UGCAUGU"},
      {"binder": "B22", "binding signal": "0.00285 KA relative to UGCAUGU"},
      {"binder": "B23", "binding signal": "0.00432 KA relative to UGCAUGU"},
      {"binder": "B24", "binding signal": "0.0278 KA relative to UGCAUGU"},
      {"binder": "B25", "binding signal": "0.0175 KA relative to UGCAUGU"},
      {"binder": "B26", "binding signal": "0.00394 KA relative to UGCAUGU"},
      {"binder": "B27", "binding signal": "0.00138 KA relative to UGCAUGU"},
      {"binder": "B28", "binding signal": "0.0429 KA relative to UGCAUGU"},
      {"binder": "B29", "binding signal": "0.000544 KA relative to UGCAUGU"},
      {"binder": "B30", "binding signal": "0.00484 KA relative to UGCAUGU"},
      {"binder": "B31", "binding signal": "0.00295 KA relative to UGCAUGU"}
    ]}
  ]
}
